Results reported in PubChem BioAssay AID504332 (National Center for Advancing Translational Sciences (NCATS), 2011).
Out of some 350,000 compounds screened, about 31,000 (8.9%) were called active. This list was built around the results that the source calls inconclusive (neither active nor inactive); the mix of calls is not that of the screen. Calls follow the shape of the dose curve; as a rule, active = well fitted inhibition curve with a large enough effect; inconclusive = small, poorly fitted or top-dose-only effect; inactive = no such curve, though single readings can be large or run the other way. A potency beside an inconclusive call is a rough fit, not a confirmed value.
% is scaled to controls: 0 for no effect and ±100 for the full control effect; potency is read from the fitted curve at half-maximal effect; tags tell the direction and shape of the fitted curve.
Also: nearly all actives have a fitted effect of over 75% in size.

The compounds below were run against Histone-lysine N-methyltransferase EHMT2 (Homo sapiens) (UniProt Q96KQ7) (assay: qHTS Assay for Inhibitors of Histone Lysine Methyltransferase G9a). Conditions: G9a H3K9 monomethylation, AlphaScreen, 2 h; activity, negative = inhibition: at 59 µM (top of the series) unless noted.
UniProt Q96KQ7, sequence (Q96KQ7 whole entry, looked up): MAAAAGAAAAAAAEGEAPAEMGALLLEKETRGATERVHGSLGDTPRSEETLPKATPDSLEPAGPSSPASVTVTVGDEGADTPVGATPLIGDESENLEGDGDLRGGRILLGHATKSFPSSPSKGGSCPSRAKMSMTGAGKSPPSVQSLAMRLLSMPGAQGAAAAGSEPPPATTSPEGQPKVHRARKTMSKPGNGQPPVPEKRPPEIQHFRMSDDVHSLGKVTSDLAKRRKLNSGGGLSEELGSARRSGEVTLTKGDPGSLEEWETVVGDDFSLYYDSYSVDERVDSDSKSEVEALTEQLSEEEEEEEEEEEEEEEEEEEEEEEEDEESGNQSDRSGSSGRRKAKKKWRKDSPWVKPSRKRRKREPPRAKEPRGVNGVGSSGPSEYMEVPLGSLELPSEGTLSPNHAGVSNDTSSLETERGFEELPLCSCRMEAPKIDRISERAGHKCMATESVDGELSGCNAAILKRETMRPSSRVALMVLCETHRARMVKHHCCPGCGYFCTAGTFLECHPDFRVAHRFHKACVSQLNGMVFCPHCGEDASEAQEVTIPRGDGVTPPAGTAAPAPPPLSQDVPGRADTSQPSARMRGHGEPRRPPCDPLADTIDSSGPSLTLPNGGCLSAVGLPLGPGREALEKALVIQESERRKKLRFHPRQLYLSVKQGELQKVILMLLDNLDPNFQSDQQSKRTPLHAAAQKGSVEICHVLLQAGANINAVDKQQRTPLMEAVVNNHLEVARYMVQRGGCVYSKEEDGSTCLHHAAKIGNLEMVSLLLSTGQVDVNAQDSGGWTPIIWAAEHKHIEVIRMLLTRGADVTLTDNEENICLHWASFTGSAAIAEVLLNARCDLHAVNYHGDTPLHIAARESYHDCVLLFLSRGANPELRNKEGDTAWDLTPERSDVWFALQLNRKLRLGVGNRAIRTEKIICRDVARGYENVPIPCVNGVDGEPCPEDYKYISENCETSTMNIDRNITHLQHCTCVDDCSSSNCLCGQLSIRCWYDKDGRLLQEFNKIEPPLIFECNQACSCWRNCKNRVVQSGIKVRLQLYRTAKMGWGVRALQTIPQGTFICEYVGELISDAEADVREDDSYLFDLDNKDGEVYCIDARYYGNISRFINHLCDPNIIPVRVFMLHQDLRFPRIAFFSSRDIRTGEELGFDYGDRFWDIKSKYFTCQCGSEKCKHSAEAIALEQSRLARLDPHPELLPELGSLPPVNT
Outline: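 Chemiluminescent proximity detection of H3K9 monomethylation, read after 10 min bead incubation in the dark. Reaction: 20 nM G9a, 500 nM biotin-H3K9 peptide, 20 uM SAM cofactor, 2 h, room temperature, following 15 min enzyme-compound preincubation.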
`O=C(COC(=O)c1cnc(Cl)c(Cl)c1)NCc1ccc2c(c1)OCO2` was tested, and the Potency was “inactive”. `CCOc1cc(/C=C\c2nc(O)c([N+](=O)[O-])c(=O)[nH]2)ccc1OC(C)C` was tested, and the Potency was inconclusive: 89.1 µM [inhibitor, partial curve, poor fit]. For `CCCCn1c(O)c(N=NC(=O)c2ccccc2NS(=O)(=O)c2cccs2)c2ccccc21`, the Potency was “inactive”. With `COc1ccc(OC)c(S(=O)(=O)NCC(c2ccco2)S(=O)(=O)c2ccccc2)c1` (stereo unspecified) the Potency was “inactive”. With `COc1ccc(C2=CC3=C(Br)C(=O)C(C)(OC(=O)c4ccc(Cl)nc4)C(=O)C3=CO2)cc1` (stereo unspecified) the Potency was “inactive”. For `Brc1cccc(CNCc2ccncc2)c1`, the Potency was “inactive”. `CC(=O)Nc1nc(SCCCc2ccccc2)n[nH]1` was tested, and the Potency was inconclusive: 89.1 µM [inhibitor, single point]. With `Fc1ccc(NCc2cccnc2)cc1` the Potency was inconclusive: 89.1 µM [inhibitor, single point]. In the case of `Cc1ccc2c(c1)N(C(=O)CCC(=O)N1CCC(C(N)=O)CC1)CC(C)O2` (stereo unspecified), the Potency is reported as inconclusive: 89.1 µM [inhibitor, single point]. With `C=CCNc1oc(-c2ccc(OCC)cc2)nc1C#N` the Potency was “inactive”. In the case of `O=C(NN1C(=O)/C(=C/c2ccc(O)c(O)c2)SC1=S)c1ccccc1`, the Potency is reported as active: 6.31 µM. `Cc1n[nH]c(C)c1N=Nc1ccc(Br)cc1` was tested, and the Potency was inconclusive: 79.4 µM [inhibitor, single point]. For `COc1ccc(N2C(=O)C(CN3CCN(C)CC3)C2c2ccccc2)cc1` (stereo unspecified), the Potency was inconclusive: 2.51 µM [inhibitor, partial curve, poor fit]. With `O=[N+]([O-])c1cc(S(=O)(=O)c2ccc(N3CCCCC3)c([N+](=O)[O-])c2)ccc1N1CCCCC1` the Potency was inconclusive: 0.794 µM [inhibitor, partial curve, poor fit]. For `O=S(=O)(c1cc(Cl)ccc1Cl)N1CCN(c2ccccn2)CC1`, the Potency was “inactive”. In the case of `Cc1nc2c(=O)n(C)c(=O)[nH]c2n1Cc1ccccc1`, the Potency is reported as inconclusive: 50.1 µM [inhibitor, partial curve]. With `O=S(=O)(Nc1ccc(Oc2ncccn2)c(Cl)c1)c1ccc(Cl)cc1` the Potency was inconclusive: 50.1 µM [inhibitor, partial curve, poor fit]. In the case of `O=C(Cn1ncn2c(cc3ccccc32)c1=O)NCc1ccco1`, the Potency is reported as inconclusive: 56.2 µM [inhibitor, partial curve, poor fit]. In the case of `Cc1cc(C(=O)Nc2ccc(N3CCCCC3)cc2)no1`, the Potency is reported as inconclusive: 44.7 µM [inhibitor, partial curve]. `COc1ccc(-c2c(-c3ccc(OCC(=O)NN)cc3O)n[nH]c2C(F)(F)F)cc1` was tested, and the Potency was “inactive”. `C[N+]1(C)CCC(=C2c3ccccc3CC(=O)c3sccc32)CC1` was tested, and the Potency was active: 6.31 µM. In the case of `O=S(=O)(Nc1ccc2c(c1)OCO2)c1ccc(Br)s1`, the Potency is reported as inconclusive: 3.55 µM [inhibitor, partial curve, poor fit]. For `CCNC(=O)N1CCCC(C(=O)c2ccc3cc(OC)ccc3c2)C1` (stereo unspecified), the Potency was inconclusive: 89.1 µM [inhibitor, partial curve, poor fit]. In the case of `C/C(=C\C=C\c1ccccc1)C(=O)c1c(C)cc(C)[nH]c1=O`, the Potency is reported as inconclusive: 89.1 µM [inhibitor, partial curve, poor fit]. In the case of `CSc1nc2sc3c(c2c(=O)n1C)CCC(C)C3` (stereo unspecified), the Potency is reported as inconclusive: 100 µM [inhibitor, single point]. With `CSc1oc(-c2ccccc2)nc1S(=O)(=O)c1ccc(C)cc1` the Potency was active: 56.2 µM. For `COCc1c(C(=O)N2CCN(CCOc3ccccc3)CC2)oc2ccccc12`, the Potency was inconclusive: 0.282 µM [inhibitor, full curve, poor fit]. `CN1C=CC=C/C1=C1\SC(=S)N(N)C1=O` was tested, and the Potency was active: 28.2 µM. In the case of `CCOc1ncccc1C(=O)Nc1cc(S(=O)(=O)N2CCCCCC2)ccc1OC`, the Potency is reported as “inactive”. For `COc1cccc(NC(=O)c2cc3cccc(OC)c3o/c2=N\O)c1`, the Potency was inconclusive: 10 µM [inhibitor, partial curve, poor fit]. `CCOC(=O)C(=CNc1ccc2c(c1)CCN2C(C)=O)C(=O)OCC` was tested, and the Potency was “inactive”. With `COc1ccc(S(=O)(=O)N(C)C)cc1NCC(=O)Nc1ccc(Br)c(C)c1` the Potency was “inactive”. `COc1cc(C=Nc2ccccc2C(=O)Nc2ccccc2)cc(OC)c1OC` was tested, and the Potency was “inactive”. `C=CCc1cccc(/C=N/NC(=O)COc2ccc(-n3cnnn3)cc2)c1O` was tested, and the Potency was “inactive”. With `COc1ccc(CN(CC(=O)NCc2ccccc2)C(=O)CCC(=O)Nc2nccs2)cc1` the Potency was “inactive”. With `O=c1oc(-c2ccccc2[N+](=O)[O-])nc2ccccc12` the activity, negative = inhibition was inconclusive: -98.1% [inhibitor]. `COc1ccc(C(=O)Nc2ccc(F)cc2F)cc1` was tested, and the activity, negative = inhibition was inactive: 29.4% [at 12.7 µM]. `COc1cc(/C=C(\C#N)C(=O)NC(C)C)ccc1OCc1ccc(C(=O)O)cc1` was tested, and the Potency was inconclusive: 89.1 µM [inhibitor, partial curve, poor fit]. For `CC1=C(C(=O)Nc2ccccc2)C(c2ccc[nH]2)n2ncnc2N1` (stereo unspecified), the Potency was inconclusive: 3.16 µM [inhibitor, partial curve, poor fit]. With `COc1ccc(CNC(=O)CN(c2cccc(OC)c2)S(C)(=O)=O)cc1` the Potency was inconclusive: 89.1 µM [inhibitor, partial curve, poor fit]. With `Nc1nc(SCc2cccc(Br)c2)n[nH]1` the Potency was active: 31.6 µM. `CCCN1CCc2c(sc3nc(SC)n(-c4ccccc4)c(=O)c23)C1` was tested, and the Potency was inconclusive: 79.4 µM [inhibitor, single point]. For `O=C(O)c1ccc(-n2cccc2/C=C2/SC(=O)N(CC(=O)N3CCCC3)C2=O)cc1`, the Potency was active: 8.91 µM. `CN1c2ccccc2C(=O)/C(=C\Nc2ccc(F)cc2)S1(=O)=O` was tested, and the Potency was inconclusive: 79.4 µM [inhibitor, single point]. For `CN(CC(=O)Nc1ccc(Cl)c(Cl)c1)C1CCCCC1`, the Potency was active: 22.4 µM. With `O=C(CCl)N1CCN(S(=O)(=O)c2ccc3c(c2)CCC3)CC1` the activity, negative = inhibition was inactive: 18.7% [at 2.33 µM]. For `Cc1ccc(C(=O)OCC(=O)NNC(=O)c2cccs2)c(O)c1`, the Potency was “inactive”. `COc1ccc(C(C)=O)cc1COC(=O)c1cc2ccccc2cc1O` was tested, and the Potency was active: 44.7 µM. `CN(C)CCCNC(=O)c1ccc(Oc2ccccc2)cc1` was tested, and the Potency was inconclusive: 79.4 µM [inhibitor, single point]. `COC(=O)C1CCN(C(=O)CSc2nnc(-c3ccncc3)o2)CC1` was tested, and the Potency was inconclusive: 25.1 µM [inhibitor, single point]. With `O=C(NCC1CCCN1S(=O)(=O)c1cccs1)c1cccc([N+](=O)[O-])c1` (stereo unspecified) the Potency was inconclusive: 79.4 µM [inhibitor, partial curve, poor fit]. For `CCCOc1ccc(C(=O)Nc2ccc3oc(-c4ccc(N(C)C)cc4)nc3c2)cc1`, the Potency was “inactive”. In the case of `Cc1ccccc1C(=O)NC(=S)NCC(=O)c1ccccc1`, the Potency is reported as “inactive”. With `C=C1CC2C3C=C(C)C4=CC(=O)CCC4(C)C3CCC2(C)[C@@]1(OC(C)=O)C(C)=O` (stereo partly specified) the Potency was active: 17.8 µM. With `CCCS(=O)(=O)c1cscc1NC(=O)c1c(-c2c(F)cccc2Cl)noc1C` the Potency was “inactive”. For `Nc1ccccc1SCC(=O)Nc1nccs1`, the Potency was inconclusive: 79.4 µM [inhibitor, partial curve, poor fit]. With `N#C/C(=C\c1ccccc1)C(=O)NCCN1CCOCC1` the Potency was inconclusive: 56.2 µM [inhibitor, partial curve, poor fit]. In the case of `CC(C)OC(=O)CSc1nc(-c2ccc(F)cc2)nc2ccc(F)cc12`, the Potency is reported as “inactive”. In the case of `COc1ccc(C(C[N+](=O)[O-])c2c(C)cc3ccccn23)cc1` (stereo unspecified), the Potency is reported as active: 35.5 µM. `Cn1c(-c2ccc(F)cc2)cnc1NCc1cccc([N+](=O)[O-])c1` was tested, and the Potency was inconclusive: 25.1 µM [inhibitor, full curve, poor fit]. With `C[C@@H]1C[C@@H]2[C@H]3CCC4=CC(=O)C=C[C@]4(C)[C@]3(F)[C@@H](O)C[C@]2(C)[C@@]1(O)C(=O)CO` the Potency was “inactive”. With `CC(OC(=O)CNC(=O)C12CC3CC(CC(C3)C1)C2)C(=O)Nc1ncc(Cl)cc1Cl` (stereo unspecified) the Potency was inconclusive: 0.631 µM [inhibitor, full curve, poor fit]. For `Cc1ccc(N2CC(C(=O)OCC(=O)c3ccc([N+](=O)[O-])cc3)CC2=O)cc1` (stereo unspecified), the Potency was inconclusive: 89.1 µM [inhibitor, single point]. `COc1ccccc1N(CC(=O)NC(C)(C)C)C(=O)Cn1nnc(-c2ccc(C)o2)n1` was tested, and the Potency was inconclusive: 7.94 µM [inhibitor, partial curve, poor fit]. `CCC(C(=O)NC1CCCC1)N(C(=O)Cn1nnc(-c2cccs2)n1)c1cnc2ccccc2c1` (stereo unspecified) was tested, and the Potency was inconclusive: 89.1 µM [inhibitor, partial curve, poor fit]. For `COCC(=O)N1CCC(Oc2ccc(C(=O)N3CCCCCCC3)cc2)CC1`, the Potency was inconclusive: 35.5 µM [inhibitor, partial curve, poor fit]. `CCOC(=O)N1CCN(c2cc(=O)n(-c3ccc(Br)cc3)c(=O)[nH]2)CC1` was tested, and the Potency was inconclusive: 39.8 µM [inhibitor, partial curve, poor fit]. In the case of `C/C(=N\Nc1nc2ccccc2s1)c1cccs1`, the Potency is reported as “inactive”. `CCc1cccc(CC)c1NC(=O)C(CC)Sc1nc2ccncc2[nH]1` (stereo unspecified) was tested, and the Potency was inconclusive: 50.1 µM [inhibitor, partial curve]. For `FC(F)(F)c1cnc2c(c1)[nH]c(=S)n2-c1ccc(Cl)cc1`, the activity, negative = inhibition was inactive: 3.83% [at 0.501 µM]. In the case of `Cc1c(C(c2cccc(Br)c2)c2c(C)n(C)n(-c3ccccc3)c2=O)c(=O)n(-c2ccccc2)n1C`, the Potency is reported as inconclusive: 89.1 µM [inhibitor, single point].
